{"source": "paper PMC7447634", "about": "“KIN10 promotes stomatal development through stabilization of the [sequence] transcription factor” (Nature Communications, 2020)", "binders": {"B1": {"name": "KIN10 (yeast two-hybrid fusion) (enzyme, UniProt Q38997-2 1-512)", "chain": "MDGSGTGSRSGVESILPNYKLGRTLGIGSFGRVKIAEHALTGHKVAIKILNRRKIKNMEMEEKVRREIKILRLFMHPHIIRLYEVIETPTDIYLVMEYVNSGELFDYIVEKGRLQEDEARNFFQQIISGVEYCHRNMVVHRDLKPENLLLDSKCNVKIADFGLSNIMRDGHFLKTSCGSPNYAAPEVISGKLYAGPEVDVWSCGVILYALLCGTLPFDDENIPNLFKKIKGGIYTLPSHLSPGARDLIPRMLVVDPMKRVTIPEIRQHPWFQAHLPRYLAVPPPDTVQQAKKIDEEILQEVINMGFDRNHLIESLRNRTQNDGTVTYYLILDNRFRASSGYLGAEFQETMEGTPRMHPAESVASPVSHRLPGLMEYQGVGLRSQYPVERKWALGLQSRAHPREIMTEVLKALQDLNVCWKKIGHYNMKCRWVPNSSADGMLSNSMHDNNYFGDESSIIENEAAVKSPNVVKFEIQLYKTRDDKYLLDLQRVQGPQFLFLDLCAAFLAQLRVL"}, "B2": {"name": "nYFP-KIN10 (rBiFC) (enzyme, UniProt Q38997-2 1-512)", "chain": "B1 chain"}, "B3": {"name": "glutathione S-transferase (GST)-SPCH (natural protein, Arabidopsis thaliana, UniProt Q700C7 1-364, looked up)", "chain": "MQEIIPDFLEECEFVDTSLAGDDLFAILESLEGAGEISPTAASTPKDGTTSSKELVKDQDYENSSPKRKKQRLETRKEEDEEEEDGDGEAEEDNKQDGQQKMSHVTVERNRRKQMNEHLTVLRSLMPCFYVKRGDQASIIGGVVEYISELQQVLQSLEAKKQRKTYAEVLSPRVVPSPRPSPPVLSPRKPPLSPRINHHQIHHHLLLPPISPRTPQPTSPYRAIPPQLPLIPQPPLRSYSSLASCSSLGDPPPYSPASSSSSPSVSSNHESSVINELVANSKSALADVEVKFSGANVLLKTVSHKIPGQVMKIIAALEDLALEILQVNINTVDETMLNSFTIKIGIECQLSAEELAQQIQQTFC", "notes": "full-length cDNA without stop codon in pDEST15 (N-GST); source: bacteria, purified (glutathione beads); not shown: GST, N-terminal, kept"}}, "key": {"[1]": {"molecular_target": "T1, FAMA (yeast two-hybrid fusion) (Arabidopsis thaliana) (UniProt Q56YJ8)", "T1 sequence": "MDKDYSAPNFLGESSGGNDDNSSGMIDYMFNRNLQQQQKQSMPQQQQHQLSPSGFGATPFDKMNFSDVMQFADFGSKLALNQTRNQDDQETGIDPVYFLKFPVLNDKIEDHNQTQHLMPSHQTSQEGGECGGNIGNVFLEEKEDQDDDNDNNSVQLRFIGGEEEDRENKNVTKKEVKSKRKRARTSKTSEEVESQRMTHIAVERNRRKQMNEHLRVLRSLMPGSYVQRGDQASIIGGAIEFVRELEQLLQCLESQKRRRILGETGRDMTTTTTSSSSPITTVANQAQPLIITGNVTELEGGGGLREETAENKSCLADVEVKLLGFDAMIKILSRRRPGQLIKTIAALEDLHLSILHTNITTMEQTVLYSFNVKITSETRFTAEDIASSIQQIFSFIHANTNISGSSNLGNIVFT", "test": "two-hybrid; yeast two-hybrid with GAL4BD and GAL4AD fusions; which protein on which domain not stated"}, "[2]": {"molecular_target": "T2, MUTE (yeast two-hybrid fusion) (Arabidopsis thaliana) (UniProt Q9M8K6)", "T2 sequence": "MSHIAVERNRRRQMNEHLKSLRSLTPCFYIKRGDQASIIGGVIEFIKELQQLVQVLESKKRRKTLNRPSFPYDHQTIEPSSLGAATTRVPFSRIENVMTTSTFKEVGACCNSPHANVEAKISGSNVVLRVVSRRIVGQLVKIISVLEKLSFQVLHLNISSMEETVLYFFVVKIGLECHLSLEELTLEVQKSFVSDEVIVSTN", "test": "two-hybrid; yeast two-hybrid with GAL4BD and GAL4AD fusions; which protein on which domain not stated"}, "[3]": {"molecular_target": "T3, … (yeast two-hybrid fusion) (Arabidopsis thaliana) (UniProt Q700C7)", "T3 sequence": "B3 chain", "test": "two-hybrid; yeast two-hybrid with GAL4BD and GAL4AD fusions; which protein on which domain not stated"}, "[4]": {"molecular_target": "T4, cYFP-SPCH (rBiFC) (Arabidopsis thaliana) (UniProt Q700C7)", "T4 sequence": "B3 chain", "test": "split reporter; ratiometric BiFC (pBiFCt-2in1-NN, RFP as internal reference) in tobacco (Nicotiana benthamiana) leaves, 36 h after infiltration; YFP signal in the nucleus"}, "[5]": {"molecular_target": "T5, KIN10-YFP (Arabidopsis thaliana) (UniProt Q38997)", "T5 sequence": "B1 chain", "test": "co-IP; seedlings expressing p35S::KIN10-YFP and p35S::SPCH-myc, or SPCH-myc only, grown with 1% sucrose for 5 days; lysate on GFP-Trap agarose beads, 4 °C, 1 h; washed with 300 mM NaCl, 1% Triton X-100; blots with anti-YFP/GFP and anti-myc"}}, "note": "No constants are given. Whether binding was seen depends on the method and setting. For some assays here: In cells and extracts the contact can be indirect. Some entries that bind do so weakly or less than the wild type. Where a sequence is shown, tags or fusion partners need not be part of it.", "data": [{"binder": "B1", "values": [{"measurement": "binding", "setting": "[1]", "value": "no binding"}, {"measurement": "binding", "setting": "[2]", "value": "no binding"}, {"measurement": "binding", "setting": "[3]", "value": "binds"}]}, {"binder": "B2", "values": [{"measurement": "binding", "setting": "[4]", "value": "binds"}]}, {"binder": "B3", "values": [{"measurement": "binding", "setting": "[5]", "value": "binds"}]}]}
